Results taken from article PMC12820563.
The other results are listed elsewhere or left out. The list includes weakly bound sequences.

molecular target: T1, MBP-FoxP3dN (UniProt Q99JB6); assay: PD-seq (MBP pull-down with sequencing); conditions: 20 mM Tris-HCl pH 7.5, 100 mM NaCl, 1.5 mM MgCl2, 0.4 uM protein, 0.1 uM dsDNA library, 30 min, room temperature, amylose pull-down; high values mean tight binding; double strand, one strand shown
T1 sequence: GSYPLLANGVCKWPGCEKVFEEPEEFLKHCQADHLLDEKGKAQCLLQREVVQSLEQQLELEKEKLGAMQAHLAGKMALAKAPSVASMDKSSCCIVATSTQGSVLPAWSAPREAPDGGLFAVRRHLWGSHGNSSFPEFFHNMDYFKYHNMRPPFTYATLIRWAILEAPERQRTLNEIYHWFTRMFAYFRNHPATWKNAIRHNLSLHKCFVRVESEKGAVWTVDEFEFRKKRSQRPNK

Sequence | binding signal (RPM ratio (pull-down/input))
GATGATTGTTCTCCCAGCTGATGAATTACGCGGGTCGAGTAAACAAATTTTCCTAATCTTTCTGTTCAAGCGCCATCTAC | 0.637
GATGATTGTTCTCCCAGCTGATGAATTCTAAGTATCGAGTAAACAAATTTTCCTAATCTTTCTGTTCAAGCGCCATCTAC | 0.47
GATGATTGTTCTCCCAGCTGATGAATTGAGTTCTTCGAGTAAACAAATTTTCCTAATCTTTCTGTTCAAGCGCCATCTAC | 0.656
GATGATTGTTCTCCCAGCTGATGAATTTTATGACTCGAGTAAACAAATTTTCCTAATCTTTCTGTTCAAGCGCCATCTAC | 0.491
GATGATTGTTCTCCCAGCTGATGAATTTGGCCTCTCGAGTAAACAAATTTTCCTAATCTTTCTGTTCAAGCGCCATCTAC | 5.4
GATGATTGTTCTCCCAGCTGATGAATTCGTATCCTCGAGTAAACAAATTTTCCTAATCTTTCTGTTCAAGCGCCATCTAC | 1.65
GATGATTGTTCTCCCAGCTGATGAATTCCTATAATCGAGTAAACAAATTTTCCTAATCTTTCTGTTCAAGCGCCATCTAC | 0.305
GATGATTGTTCTCCCAGCTGATGAATTTTGATTATCGAGTAAACAAATTTTCCTAATCTTTCTGTTCAAGCGCCATCTAC | 4.43
GATGATTGTTCTCCCAGCTGATGAATTATGTCCCTCGAGTAAACAAATTTTCCTAATCTTTCTGTTCAAGCGCCATCTAC | 1.75
GATGATTGTTCTCCCAGCTGATGAATTGGATACATCGAGTAAACAAATTTTCCTAATCTTTCTGTTCAAGCGCCATCTAC | 0.808
GATGATTGTTCTCCCAGCTGATGAATTATGAATTTCGAGTAAACAAATTTTCCTAATCTTTCTGTTCAAGCGCCATCTAC | 1.57
GATGATTGTTCTCCCAGCTGATGAATTGAAAAGCTCGAGTAAACAAATTTTCCTAATCTTTCTGTTCAAGCGCCATCTAC | 0.192
GATGATTGTTCTCCCAGCTGATGAATTTCGACACTCGAGTAAACAAATTTTCCTAATCTTTCTGTTCAAGCGCCATCTAC | 1.96
GATGATTGTTCTCCCAGCTGATGAATTGTTGTTGTCGAGTAAACAAATTTTCCTAATCTTTCTGTTCAAGCGCCATCTAC | 7.65
GATGATTGTTCTCCCAGCTGATGAATTTCCTTTTTCGAGTAAACAAATTTTCCTAATCTTTCTGTTCAAGCGCCATCTAC | 0.286
GATGATTGTTCTCCCAGCTGATGAATTGTATTCGTCGAGTAAACAAATTTTCCTAATCTTTCTGTTCAAGCGCCATCTAC | 1.73

Sequence | binding signal (RPM ratio (pull-down/input))
GATGATTGTTCTCCCAGCTGATGAATTGTCGTTCTCGAGTAAACAAATTTTCCTAATCTTTCTGTTCAAGCGCCATCTAC | 0.975
GATGATTGTTCTCCCAGCTGATGAATTAATAATGTCGAGTAAACAAATTTTCCTAATCTTTCTGTTCAAGCGCCATCTAC | 0.447
GATGATTGTTCTCCCAGCTGATGAATTCCCTCCTTCGAGTAAACAAATTTTCCTAATCTTTCTGTTCAAGCGCCATCTAC | 0.232
GATGATTGTTCTCCCAGCTGATGAATTGAACGATTCGAGTAAACAAATTTTCCTAATCTTTCTGTTCAAGCGCCATCTAC | 0.312
GATGATTGTTCTCCCAGCTGATGAATTTTCTTTCTCGAGTAAACAAATTTTCCTAATCTTTCTGTTCAAGCGCCATCTAC | 0.34
GATGATTGTTCTCCCAGCTGATGAATTGTCGCGGTCGAGTAAACAAATTTTCCTAATCTTTCTGTTCAAGCGCCATCTAC | 0.456
GATGATTGTTCTCCCAGCTGATGAATTACCAAGTTCGAGTAAACAAATTTTCCTAATCTTTCTGTTCAAGCGCCATCTAC | 0.267
GATGATTGTTCTCCCAGCTGATGAATTGACACTGTCGAGTAAACAAATTTTCCTAATCTTTCTGTTCAAGCGCCATCTAC | 0.464
GATGATTGTTCTCCCAGCTGATGAATTTACCGAATCGAGTAAACAAATTTTCCTAATCTTTCTGTTCAAGCGCCATCTAC | 0.376
GATGATTGTTCTCCCAGCTGATGAATTTACTTCTTCGAGTAAACAAATTTTCCTAATCTTTCTGTTCAAGCGCCATCTAC | 0.632
GATGATTGTTCTCCCAGCTGATGAATTGCATTTGTCGAGTAAACAAATTTTCCTAATCTTTCTGTTCAAGCGCCATCTAC | 3.18
GATGATTGTTCTCCCAGCTGATGAATTTGCGCGCTCGAGTAAACAAATTTTCCTAATCTTTCTGTTCAAGCGCCATCTAC | 0.879
GATGATTGTTCTCCCAGCTGATGAATTACGGTCATCGAGTAAACAAATTTTCCTAATCTTTCTGTTCAAGCGCCATCTAC | 0.667
GATGATTGTTCTCCCAGCTGATGAATTGCACAATTCGAGTAAACAAATTTTCCTAATCTTTCTGTTCAAGCGCCATCTAC | 1.04
GATGATTGTTCTCCCAGCTGATGAATTCAAGACGTCGAGTAAACAAATTTTCCTAATCTTTCTGTTCAAGCGCCATCTAC | 0.243
GATGATTGTTCTCCCAGCTGATGAATTAGTATGATCGAGTAAACAAATTTTCCTAATCTTTCTGTTCAAGCGCCATCTAC | 1.04
